{"source": "the supplement of paper PMC8728848", "binders": {"B1": {"name": "PX9937F-bfa-516-16-516 (Bacteroides fragilis) (protein)", "chain": "LDIDPTSSIADSNYWKTEAQFSTFNVGLHALLRECSFNFFLLGEPRADIYGDVPFGGEATQGMERLPFNTINKENTGISNFAGMYKVINQINLMIAKTKETTVLSEAGKNYYLGEAYGMRAYLYFHLLRSWGDVILYLDYTNGASLDLSNLSKAASPAEEVMKQIKEDITASEKGFGSDYSFKYGRYYWSMAATQMLKGEVYLWSGRQMGGGTADYTTAKTALQSIVSNANVSLQDDFSKVFAYNNKDNSEIIFSIRNAKDEYNMWDDRFRQNLVPQQAYMTSTYCNKEGVSFKDLPEGQLNGLIRLQIRYDLYNKAFRDGDTRKDASMTAVYQKQQDGTVKYIAPFCNKYQGVLLDGASQRSFLNDYPIYRYADCLLLLAEAKALLGEDPTAEINQVRERAYGKEFFEANKATLAYPNDKGDFYTDNKYMSGDEDPLEAILKERMREFMFEGKRWYDLRLLGADYVTKRTSAVATRLLWPINESVLTDNPALKQTPGYQN"}}, "test_in_all_cases": "glycan array binding signal (z-score within array); higher = stronger binding", "conditions_in_all_cases": "glycan notation: IUPAC condensed, linker removed", "key": {"[1]": {"biological_target": "Fuc(a1-2)Gal(b1-4)GlcNAc(b1-3)Gal(b1-4)GlcNAc(b1-3)Gal(b1-4)GlcNAc", "summary_of_the_method": "(§1)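 The Consortium for Functional Glycomics database supplied 3228 glycan arrays, of which those lacking an available protein sequence were dropped. The binding signal, a within-array Z-score, was averaged across arrays of the same protein sequence and across linkers. Negative scores can be read as non-binding.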"}, "[2]": {"biological_target": "Fuc(a1-2)Gal(b1-4)GlcNAc(b1-3)GalNAc", "summary_of_the_method": "as §1"}, "[3]": {"biological_target": "Fuc(a1-2)Gal(b1-4)GlcNAc(b1-3)[Fuc(a1-2)Gal(b1-4)GlcNAc(b1-6)]GalNAc", "summary_of_the_method": "as §1"}, "[4]": {"biological_target": "Fuc(a1-2)Gal(b1-4)GlcNAc(b1-3)[Fuc(a1-3)[Gal(b1-4)]GlcNAc(b1-6)]Gal(b1-4)Glc", "summary_of_the_method": "as §1"}, "[5]": {"biological_target": "Fuc(a1-2)Gal(b1-4)GlcNAc(b1-6)GalNAc", "summary_of_the_method": "as §1"}, "[6]": {"biological_target": "Fuc(a1-2)Gal(b1-4)GlcNAc6S", "summary_of_the_method": "as §1"}, "[7]": {"biological_target": "Fuc(a1-2)Gal(b1-4)[Fuc(a1-3)]GlcNAc", "summary_of_the_method": "as §1"}, "[8]": {"biological_target": "Fuc(a1-2)Gal(b1-4)[Fuc(a1-3)]GlcNAc(b1-2)Man(a1-3)[Fuc(a1-2)Gal(b1-4)[Fuc(a1-3)]GlcNAc(b1-2)Man(a1-6)]Man(b1-4)GlcNAc(b1-4)[Fuc(a1-6)]GlcNAc", "summary_of_the_method": "as §1"}, "[9]": {"biological_target": "Fuc(a1-2)Gal(b1-4)[Fuc(a1-3)]GlcNAc(b1-2)[Fuc(a1-2)Gal(b1-4)[Fuc(a1-3)]GlcNAc(b1-4)]Man(a1-3)[Fuc(a1-2)Gal(b1-4)[Fuc(a1-3)]GlcNAc(b1-2)Man(a1-6)]Man(b1-4)GlcNAc(b1-4)GlcNAc", "summary_of_the_method": "as §1"}, "[10]": {"biological_target": "Fuc(a1-2)Gal(b1-4)[Fuc(a1-3)]GlcNAc(b1-3)Gal(b1-4)[Fuc(a1-3)]GlcNAc", "summary_of_the_method": "as §1"}, "[11]": {"biological_target": "Fuc(a1-2)Gal(b1-4)[Fuc(a1-3)]GlcNAc(b1-3)Gal(b1-4)[Fuc(a1-3)]GlcNAc(b1-3)Gal(b1-4)[Fuc(a1-3)]GlcNAc", "summary_of_the_method": "as §1"}, "[12]": {"biological_target": "Fuc(a1-2)Gal(b1-4)[Fuc(a1-3)]GlcNAc(b1-3)GalNAc", "summary_of_the_method": "as §1"}, "[13]": {"biological_target": "Fuc(a1-2)Gal(b1-4)[Fuc(a1-3)]GlcNAc(b1-3)[Neu5Ac(a2-6)Gal(b1-4)GlcNAc(b1-6)]Gal(b1-4)Glc", "summary_of_the_method": "as §1"}, "[14]": {"biological_target": "Fuc(a1-2)Gal3S(b1-4)GlcNAc", "summary_of_the_method": "as §1"}, "[15]": {"biological_target": "Fuc(a1-2)Gal6S(b1-3)GlcNAc", "summary_of_the_method": "as §1"}, "[16]": {"biological_target": "Fuc(a1-2)Gal6S(b1-3)GlcNAc6S", "summary_of_the_method": "as §1"}, "[17]": {"biological_target": "Fuc(a1-2)Gal6S(b1-4)Glc", "summary_of_the_method": "as §1"}, "[18]": {"biological_target": "Fuc(a1-2)Gal6S(b1-4)Glc6S", "summary_of_the_method": "as §1"}, "[19]": {"biological_target": "Fuc(a1-2)[Gal(a1-3)]Gal", "summary_of_the_method": "as §1"}, "[20]": {"biological_target": "Fuc(a1-2)[Gal(a1-3)]Gal(b1-3)GalNAc", "summary_of_the_method": "as §1"}, "[21]": {"biological_target": "Fuc(a1-2)[Gal(a1-3)]Gal(b1-3)GalNAc(b1-3)Gal(a1-4)Gal(b1-4)Glc", "summary_of_the_method": "as §1"}, "[22]": {"biological_target": "Fuc(a1-2)[Gal(a1-3)]Gal(b1-3)GlcNAc", "summary_of_the_method": "as §1"}, "[23]": {"biological_target": "Fuc(a1-2)[Gal(a1-3)]Gal(b1-3)GlcNAc(b1-2)Man(a1-3)[Fuc(a1-2)[Gal(a1-3)]Gal(b1-3)GlcNAc(b1-2)Man(a1-6)]Man(b1-4)GlcNAc(b1-4)GlcNAc", "summary_of_the_method": "as §1"}, "[24]": {"biological_target": "Fuc(a1-2)[Gal(a1-3)]Gal(b1-3)GlcNAc(b1-2)Man(a1-3)[Fuc(a1-2)[Gal(a1-3)]Gal(b1-3)GlcNAc(b1-2)Man(a1-6)]Man(b1-4)GlcNAc(b1-4)[Fuc(a1-6)]GlcNAc", "summary_of_the_method": "as §1"}, "[25]": {"biological_target": "Fuc(a1-2)[Gal(a1-3)]Gal(b1-3)GlcNAc(b1-3)GalNAc", "summary_of_the_method": "as §1"}, "[26]": {"biological_target": "Fuc(a1-2)[Gal(a1-3)]Gal(b1-3)GlcNAc(b1-6)GalNAc", "summary_of_the_method": "as §1"}, "[27]": {"biological_target": "Fuc(a1-2)[Gal(a1-3)]Gal(b1-4)Glc", "summary_of_the_method": "as §1"}, "[28]": {"biological_target": "Fuc(a1-2)[Gal(a1-3)]Gal(b1-4)GlcNAc", "summary_of_the_method": "as §1"}, "[29]": {"biological_target": "Fuc(a1-2)[Gal(a1-3)]Gal(b1-4)GlcNAc(b1-2)Man", "summary_of_the_method": "as §1"}, "[30]": {"biological_target": "Fuc(a1-2)[Gal(a1-3)]Gal(b1-4)GlcNAc(b1-2)Man(a1-3)[Fuc(a1-2)[Gal(a1-3)]Gal(b1-4)GlcNAc(b1-2)Man(a1-6)]Man(b1-4)GlcNAc(b1-4)GlcNAc", "summary_of_the_method": "as §1"}}, "note": "The list shows a part of the results."}
{"binder": "B1", "values": [{"measurement": "glycan array binding signal (z-score)", "setting": "[1]", "result": -0.219}, {"measurement": "glycan array binding signal (z-score)", "setting": "[2]", "result": 0.182}, {"measurement": "glycan array binding signal (z-score)", "setting": "[3]", "result": 0.052}, {"measurement": "glycan array binding signal (z-score)", "setting": "[4]", "result": -0.251}, {"measurement": "glycan array binding signal (z-score)", "setting": "[5]", "result": -0.245}, {"measurement": "glycan array binding signal (z-score)", "setting": "[6]", "result": 0.094}, {"measurement": "glycan array binding signal (z-score)", "setting": "[7]", "result": -0.211}, {"measurement": "glycan array binding signal (z-score)", "setting": "[8]", "result": -0.046}, {"measurement": "glycan array binding signal (z-score)", "setting": "[9]", "result": -0.08}, {"measurement": "glycan array binding signal (z-score)", "setting": "[10]", "result": -0.144}, {"measurement": "glycan array binding signal (z-score)", "setting": "[11]", "result": -0.145}, {"measurement": "glycan array binding signal (z-score)", "setting": "[12]", "result": 0.061}, {"measurement": "glycan array binding signal (z-score)", "setting": "[13]", "result": -0.24}, {"measurement": "glycan array binding signal (z-score)", "setting": "[14]", "result": -0.168}, {"measurement": "glycan array binding signal (z-score)", "setting": "[15]", "result": -0.023}, {"measurement": "glycan array binding signal (z-score)", "setting": "[16]", "result": -0.047}, {"measurement": "glycan array binding signal (z-score)", "setting": "[17]", "result": 0.175}, {"measurement": "glycan array binding signal (z-score)", "setting": "[18]", "result": 0.137}, {"measurement": "glycan array binding signal (z-score)", "setting": "[19]", "result": -0.057}, {"measurement": "glycan array binding signal (z-score)", "setting": "[20]", "result": 0.078}, {"measurement": "glycan array binding signal (z-score)", "setting": "[21]", "result": -0.351}, {"measurement": "glycan array binding signal (z-score)", "setting": "[22]", "result": 0.033}, {"measurement": "glycan array binding signal (z-score)", "setting": "[23]", "result": -0.058}, {"measurement": "glycan array binding signal (z-score)", "setting": "[24]", "result": 0.417}, {"measurement": "glycan array binding signal (z-score)", "setting": "[25]", "result": -0.246}, {"measurement": "glycan array binding signal (z-score)", "setting": "[26]", "result": 0.688}, {"measurement": "glycan array binding signal (z-score)", "setting": "[27]", "result": 0.153}, {"measurement": "glycan array binding signal (z-score)", "setting": "[28]", "result": -0.012}, {"measurement": "glycan array binding signal (z-score)", "setting": "[29]", "result": -0.047}, {"measurement": "glycan array binding signal (z-score)", "setting": "[30]", "result": 1.48}]}
